{"source": "PubChem BioAssay AID463173", "about": "(ICCB-Longwood Screening Facility, Harvard Medical School, 2010)", "note": "Among all 52,000 compounds or so, about 1,700 (3.3%) were called active. Rule as the data show it: active = survival mostly below about 52% (no sharp cut-off); inactive = mostly above about 56%. The list shows a part of the results.", "data": [{"tested_on": "Wild type", "assay": "growth inhibition of S. aureus wild type versus tarO mutant, primary screen, teichoic acid synthesis inhibitors, RN4220, OD600 (AID 463173)", "settings": "S. aureus RN4220 wild type/DeltatarO growth, OD600, 18 h, stronger effect = lower value, screened at 18.75 µg/mL (by protocol)", "values": [{"smiles": "COc1cc(CCC(=O)NCc2ccc3c(c2)CCN3C(=O)c2cccc(C)c2)cc(OC)c1OC", "survival": "inactive: 133%"}, {"smiles": "COc1cc(C2c3c(oc4ccccc4c3=O)C(=O)N2Cc2ccccc2Cl)ccc1O", "note": "(centres undefined)", "survival": "inactive: 82%"}, {"smiles": "CCc1ccc(N(CC)C(=O)Cn2c(=O)oc3ccccc32)cc1", "survival": "inactive: 71%"}, {"smiles": "Cc1ccc(-n2ncc(C(=O)Nc3ccc4c(c3)OCO4)c2C2CCN(C(=O)OC(C)(C)C)CC2)cc1", "survival": "inactive: 85%"}, {"smiles": "Cc1nc2scc(C)n2c(=O)c1S(=O)(=O)Nc1ccc(N2CCOCC2)cc1", "survival": "inactive: 82%"}, {"smiles": "Cc1ccnc(NS(=O)(=O)c2cc(-c3cc(C)no3)ccc2C)c1", "survival": "inactive: 78%"}, {"smiles": "COc1cccc2cc(C(=O)NCCc3c(C)[nH]c4ccc(Br)cc34)c(=O)oc12", "survival": "inactive: 129%"}, {"smiles": "COc1ccc(NC(=O)C2CCCN(S(=O)(=O)c3ccc4c(c3)CCCC(=O)N4)C2)c(OC)c1", "note": "(centres undefined)", "survival": "inactive: 71%"}, {"smiles": "Cc1nn(S(=O)(=O)c2ccc(F)cc2)c(C)c1S(=O)(=O)N1CCC(C)CC1", "survival": "active: -3%"}, {"smiles": "CCOCCn1ccc2c(OCC(=O)Nc3ccc(OC(F)(F)F)cc3)cccc2c1=O", "survival": "inactive: 74%"}, {"smiles": "O=C(CN1C(=O)CC(c2ccccc2)Sc2ccccc21)Nc1cccc(Cl)c1", "note": "(centres undefined)", "survival": "inactive: 92%"}, {"smiles": "CC(=O)c1cccc(NC(=O)CCS(=O)(=O)c2ccc(Br)s2)c1", "survival": "inactive: 74%"}, {"smiles": "CCOC(=O)c1cc2c(=O)n3ccccc3nc2n(CC(C)C)c1=NC(=O)c1cc2ccccc2o1", "survival": "inactive: 60%"}, {"smiles": "CC(C)(C)N1Sc2ccccc2NC1=S", "survival": "inactive: 94%"}, {"smiles": "Cc1ccc(S(=O)(=O)c2cn(Cc3ccc(F)cc3)c3cc(F)c(F)cc3c2=O)cc1", "survival": "inactive: 95%"}, {"smiles": "Cc1ccc(CCNC(=O)C2CCN(c3nnc(-n4cccc4CNc4ccc(C)cc4)s3)CC2)cc1", "survival": "inactive: 139%"}, {"smiles": "CCN(C(=O)Cn1c(=O)oc2cc(Cl)ccc21)c1cccc(C(F)(F)F)c1", "survival": "inactive: 83%"}, {"smiles": "COc1ccc(/C=C/C(=O)Nc2nc3n(n2)C(c2ccccc2)C=C(c2ccccc2)N3)cc1", "note": "(centres undefined)", "survival": "inactive: 82%"}, {"smiles": "Cc1ccc(-c2cnc(NCc3ccc(C(F)(F)F)cc3)n2C)cc1", "survival": "active: -13%"}, {"smiles": "C=CCNC(=S)N1CCC(C(=O)c2ccc(C)cc2)CC1", "survival": "inactive: 117%"}, {"smiles": "CN1C(=O)C2(c3ccccc31)N(c1cccc(F)c1)C(=O)CS2(=O)=O", "note": "(centres undefined)", "survival": "inactive: 128%"}, {"smiles": "COCCCNC(=O)c1cc(-c2cccnc2)nc2ccc(S(=O)(=O)N3CCC(C)CC3)cc12", "survival": "inactive: 126%"}, {"smiles": "COc1ccccc1NC(=O)N1CCN(c2cc(-c3ccccc3)nc3ncnn23)CC1", "survival": "inactive: 99%"}, {"smiles": "O=C(NCc1ccccc1Cl)c1cnc2sc(N3CCCCC3)nn2c1=O", "survival": "inactive: 81%"}, {"smiles": "COc1ccc(Cl)cc1NC(=O)c1c(NCc2sccc2C)sc2c1CCCC2", "survival": "inactive: 70%"}, {"smiles": "Clc1ccccc1CNc1nc2ccccc2c2nc(-c3cccnc3)nn12", "survival": "inactive: 85%"}, {"smiles": "Cc1ccc(CN(C2CCCC2)S(=O)(=O)c2ccc(S(=O)(=O)N3CCCC(C)C3)cc2)o1", "note": "(centres undefined)", "survival": "inactive: 101%"}, {"smiles": "O=S(=O)(c1ccc(Br)cc1)c1nc(-c2cccs2)oc1SCc1ccccc1F", "survival": "inactive: 69%"}, {"smiles": "O=C(Cn1nnc(-c2ccc(Cl)cc2)n1)NCc1ccc(F)cc1", "survival": "inactive: 83%"}, {"smiles": "COc1ccc(OC)c(CNS(=O)(=O)c2c(C(=O)N3CCCCCC3)c(C)n(C)c2C)c1", "survival": "inactive: 135%"}, {"smiles": "COc1ccccc1N1CCN(C(=O)CCNS(=O)(=O)c2ccc3c(c2)CCN3C(=O)C2CC2)CC1", "survival": "inactive: 90%"}, {"smiles": "Cc1ccc(CNC(=O)Cn2cc(S(=O)(=O)Cc3ccccc3F)c3ccccc32)cc1", "survival": "inactive: 121%"}, {"smiles": "Cc1ccc(NC(=O)c2cnc(SCC(=O)Nc3cc(C)on3)n(C)c2=O)cc1", "survival": "inactive: 78%"}, {"smiles": "COc1ccc(Cl)cc1NC(=O)CSC1=Nc2ccccc2C2=NC(CC(=O)NCc3ccc4c(c3)OCO4)C(=O)N12", "note": "(centres undefined)", "survival": "inactive: 76%"}, {"smiles": "COc1ccccc1C(=O)Nc1ccc2c(c1)nc(CN1CCCCC1)n2C", "survival": "inactive: 81%"}, {"smiles": "CCn1c(=O)n(CC)c2cc(N3CCCCC3)c(NC(=O)Nc3ccccc3C(F)(F)F)cc21", "survival": "inactive: 75%"}, {"smiles": "Cc1cc(C)n2nc(SCC(=O)Nc3cccc(C(F)(F)F)c3)nc2n1", "survival": "inactive: 56%"}, {"smiles": "C=CCc1ccccc1OCC(O)CN1CCN(c2ccccc2)CC1", "note": "(centres undefined)", "survival": "inactive: 54%"}, {"smiles": "CCc1ccccc1NC(=O)c1cnc2sc(N3CCOCC3)nn2c1=O", "survival": "inactive: 136%"}, {"smiles": "CCOC(=O)c1ccc(NC(=O)CC2C(=O)N(c3cccc(OC)c3)C(=O)N2Cc2ccc(OC)cc2)cc1", "note": "(centres undefined)", "survival": "inactive: 76%"}, {"smiles": "COc1ccc(C(CC(=O)NCc2ccccc2)N2Cc3ccccc3C2=O)cc1", "note": "(centres undefined)", "survival": "inactive: 124%"}, {"smiles": "CCC(Oc1ccc(F)cc1)C(=O)Nc1nc(-c2ccc(F)cc2)ns1", "note": "(centres undefined)", "survival": "active: -1%"}, {"smiles": "CN(Cc1ccccc1)C(=O)CSc1nc2ccccc2n1Cc1ccccc1F", "survival": "inactive: 68%"}, {"smiles": "Cc1ccccc1NC(=O)CSc1nc(=O)n(CCN2CCOCC2)c2c1CCC2", "survival": "inactive: 92%"}, {"smiles": "CC(C)c1cnc2c(c1SCC(=O)NCc1ccccc1)c(=O)n(C)c(=O)n2C", "survival": "inactive: 73%"}, {"smiles": "Cc1ccc(-c2nc3ccc(Cl)cn3c2Nc2ccccc2C)s1", "survival": "inactive: 94%"}, {"smiles": "COC(=O)c1ccc(NC(=O)CCc2c(C)nc3c(c2C)c(=O)n(C)c(=O)n3C)cc1", "survival": "inactive: 80%"}, {"smiles": "COc1ccccc1Cc1nc2ccccc2nc1SCC(=O)Nc1cccc(Cl)c1C", "survival": "inactive: 71%"}, {"smiles": "Cc1sc2c(c1C)c(=O)n(-c1cccc(C(F)(F)F)c1)c(=O)n2Cc1ccc(F)cc1", "survival": "inactive: 84%"}, {"smiles": "COCCNC(=O)Cn1nc(C(F)(F)F)cc1C", "survival": "inactive: 109%"}, {"smiles": "N#Cc1c(N)nc2c(c1-c1ccc3c(c1)OCO3)CCc1ccccc1-2", "survival": "inactive: 112%"}, {"smiles": "COc1cc(NC(=O)CSC2=Nc3ccccc3N=C(c3ccc(F)cc3)C2)cc(OC)c1", "survival": "inactive: 71%"}, {"smiles": "Cc1cc(N2CCOCC2)cc(C)[n+]1[O-]", "survival": "inactive: 96%"}, {"smiles": "C#CCN1C(=O)C2C(C(=O)NC)C3C=CC2(O3)C1C(=O)NCc1ccc(OC)cc1", "note": "(centres undefined)", "survival": "inactive: 107%"}, {"smiles": "COc1ccc(CNC(=O)c2cnc3cc(C)ccn3c2=O)cc1", "survival": "inactive: 85%"}, {"smiles": "CCCCN(CC)C(=O)Cn1nc(C)c2c(C)n(-c3ccccc3)nc2c1=O", "survival": "inactive: 78%"}, {"smiles": "Nc1nnc(C2CCCC2)s1", "survival": "inactive: 110%"}, {"smiles": "CCOC(=O)c1c(C)oc2nc(C)nc(NCc3cccc(OC)c3)c12", "survival": "inactive: 59%"}, {"smiles": "CCOCN(C(=O)CSc1nc2ccccc2[nH]1)c1c(C)cccc1CC", "survival": "inactive: 127%"}, {"smiles": "Cc1cc2c(C)nc3ccc(C(=O)O)cc3c2o1", "survival": "inactive: 111%"}, {"smiles": "COc1ccccc1CNC(=O)CCCn1c(=O)c2ccccc2n(Cc2ccccc2F)c1=O", "survival": "inactive: 134%"}, {"smiles": "Cc1ccc(N2CC(C(=O)Nc3ccc(Cl)cc3Cl)CC2=O)cc1", "note": "(centres undefined)", "survival": "inactive: 82%"}, {"smiles": "Cc1cccc(Cn2c(SCc3ccc(C(=O)NC4CCCCC4)cc3)nc3cccnc32)c1", "survival": "inactive: 75%"}, {"smiles": "CCOC(=O)c1cc(OC(=O)c2ccc(OC)c(OC)c2)n(-c2ccccc2)n1", "survival": "inactive: 73%"}, {"smiles": "C/C(=N/NC(=O)C(F)(F)F)c1cccs1", "survival": "inactive: 94%"}, {"smiles": "CCn1c(=O)cc(SCC(=O)N2CCN(c3cc(C)ccc3C)CC2)c2ccccc21", "survival": "inactive: 36%"}, {"smiles": "COc1ccccc1NC(=O)CCNS(=O)(=O)c1ccc2c(c1)CCCC(=O)N2", "survival": "inactive: 72%"}, {"smiles": "CCOc1ccccc1CNC(=O)c1cnc2sc(N3CCC(C)CC3)nn2c1=O", "survival": "inactive: 85%"}, {"smiles": "O=C(CSc1nnc(-c2ccccc2)o1)N1CCCc2ccccc21", "survival": "inactive: 68%"}, {"smiles": "Cc1nn(C(C)C(=O)NCc2cccc(F)c2)c(=O)c2c1sc1ccccc12", "note": "(centres undefined)", "survival": "inactive: 75%"}, {"smiles": "CCc1ccc(-c2csc(-c3cc4cc(Br)ccc4oc3=O)n2)cc1", "survival": "inactive: 128%"}, {"smiles": "COc1ccc(C(=O)Nc2nnc(S(=O)(=O)N3CCOCC3)s2)cc1", "survival": "inactive: 107%"}, {"smiles": "O=C1CCCc2c1cc(C(=O)Nc1ccc(Cl)cn1)c(=O)n2-c1ccccc1", "survival": "inactive: 110%"}, {"smiles": "CCN(CC)C(=O)Cn1cc(SCC(=O)Nc2ccc(C)cc2)c2ccccc21", "survival": "inactive: 90%"}, {"smiles": "CCOC(=O)N1CCc2c(sc3c2c(=O)n(-c2ccc(Cl)cc2)c(=O)n3CC(=O)Nc2ccccc2)C1", "survival": "inactive: 81%"}, {"smiles": "Cc1ccc(C)c(N2CCN(C(=O)Cn3nc(Cc4cccnc4)c4ccccc4c3=O)CC2)c1", "survival": "inactive: 83%"}, {"smiles": "COc1ccc(C)cc1NC(=O)C(NS(=O)(=O)c1cccc2nsnc12)c1ccccc1", "note": "(centres undefined)", "survival": "inactive: 64%"}, {"smiles": "Cc1cccc(CNC(=O)C2CCN(c3nc4ccc(Cl)cc4[nH]3)CC2)c1", "survival": "inactive: 79%"}, {"smiles": "CCCC1(C(=O)OCC)NC(c2ccc(N(C)C)cc2)C2C(=O)N(c3ccc(OCC)cc3)C(=O)C21", "note": "(centres undefined)", "survival": "inactive: 108%"}, {"smiles": "COc1ccc(CN(CC(=O)NC2CCCC2)C(=O)Cn2nnc(-c3ccc(OC)cc3)n2)cc1", "survival": "inactive: 116%"}, {"smiles": "Cc1cc(C)c2c(C)c(C(=O)N3CCC(c4nc5ccccc5s4)CC3)oc2c1", "survival": "inactive: 67%"}, {"smiles": "COc1ccc(C2Nc3ccccc3-c3nnc(SC)nc3O2)cc1C", "note": "(centres undefined)", "survival": "inactive: 69%"}, {"smiles": "COc1cc(C2c3c(oc4ccc(C)cc4c3=O)C(=O)N2Cc2ccc(F)cc2)ccc1O", "note": "(centres undefined)", "survival": "inactive: 83%"}, {"smiles": "Cc1nc2c3ccccc3nc(NNC(=O)CCC(=O)N3CCN(c4ccccc4F)CC3)n2n1", "survival": "inactive: 85%"}, {"smiles": "Cc1ccc(NC(=O)CCC(=O)N2CCOc3ccccc32)c(Cl)c1", "survival": "inactive: 78%"}, {"smiles": "Cc1ccc(C(=O)Nc2ccccc2F)cc1S(=O)(=O)N1CCOCC1", "survival": "inactive: 74%"}, {"smiles": "c1cc2c(cc1CNC1CCCC1)OCO2", "survival": "inactive: 104%"}, {"smiles": "N#Cc1ccccc1NC(=O)C(=O)NCC(c1ccc2c(c1)OCO2)N1CCN(c2ccccc2)CC1", "note": "(centres undefined)", "survival": "inactive: 132%"}, {"smiles": "Cc1nc2cccnc2n1-c1cccc(C(=O)NCCc2ccc(Cl)cc2)c1", "survival": "inactive: 73%"}]}]}
